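Growth conditions: 96-well plates. Treatment: test compound, 48 hours, 5 concentrations. Analysis: linear interpolation between bracketing concentrations; unreached endpoints set to highest concentration. GI50 is the concentration that inhibits growth by half.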 The source made the active and inactive calls. Cut-off read from the data, not from the text of the source: active = GI50 up to about 1.1 µM and inactive = higher.
Each compound was assayed on NCI-H322M (assay: NCI tumour cell line growth inhibition, 48 h).
For `Nc1nc2c(c(=O)[nH]1)N=C(COP(=O)(O)OP(=O)(O)O)CN2`, the GI50 was inactive: > 100 µM.
`Cn1ncc2c(NCc3ccccc3)ncnc21` was tested, and the GI50 was inactive: > 100 µM.
`Cc1nc(N)nc(S)c1CCC(=O)O` was tested, and the GI50 was inactive: > 100 µM.
For `CCN(CC)c1ccc(C(=C2C=CC(=[N+](CC)CC)C=C2)c2ccccc2)cc1`, the GI50 was active: 0.0615 µM.
In the case of `O=[N+]([O-])/C=C/c1cc2ccc3ccccc3c2[nH]1`, the GI50 is reported as inactive: 2.88 µM.
`CN1CCOC(C(NC(=O)c2ccccc2)c2ccccc2)C1=O` (stereo not given) was tested, and the GI50 was inactive: > 100 µM.
For `O=C(N/C(=C\c1ccc(/C=C(\NC(=O)c2ccccc2)c2nc3ccccc3s2)cc1)c1nc2ccccc2s1)c1ccccc1`, the GI50 was inactive: 12.8 µM.
`C[Si](C)(C)C1=C2C(=O)c3ccccc3C(=O)C2=C([Si](C)(C)C)[C@@H]2CCCC[C@H]12` was tested, and the GI50 was inactive: > 100 µM.
For `Cc1c2ccncc2c(C)c2c1[nH]c1ccc(OCCN(C)C)cc12`, the GI50 was active: 0.0891 µM.
`Cc1nc2c(nc1C)C(=O)c1cc(O)ccc1C2=O` was tested, and the GI50 was inactive: 77.4 µM.
In the case of `O=C(Nc1ccc(Cl)cc1Cl)C(=O)C(C(=O)c1ccc2ccccc2c1)C1OC(=O)c2ccccc21` (stereo not given), the GI50 is reported as inactive: 7.08 µM.
In the case of `CNS(=O)(=O)NN(C)S(=O)(=O)c1ccccc1`, the GI50 is reported as inactive: > 100 µM.
For `Cc1ccc(C(=O)O/N=C2/CCC/C2=C\c2ccccc2)cc1`, the GI50 was inactive: > 100 µM.
For `CSc1ncnc2c1ncn2CCC(=O)OC(C)(C)C`, the GI50 was inactive: > 100 µM.
With `CCNC(=S)NNC(=O)C12CC3CC(CC(C3)C1)C2` the GI50 was inactive: > 100 µM.
For `N=C(CC(=O)Nc1ccc(Cl)cc1)Nc1ccccc1`, the GI50 was inactive: > 100 µM.
In the case of `C=C1C[C@H](O)[C@H](Br)C(C)(C)C12CCC(C)(Cl)C(Br)C2` (stereo not given in full), the GI50 is reported as inactive: 1.28 µM.
In the case of `COC(=O)c1c(O)ccc2c1c1c(n2Cc2ccccn2)C(=O)c2ccccc2C1`, the GI50 is reported as inactive: > 100 µM.
With `COc1cc2ccnc([C@@H](OC(=O)c3ccccc3)c3ccc(OC)c(OC)c3OC)c2cc1OC` the GI50 was inactive: 73.6 µM.
With `CC(=O)NNc1nc(C)c(C(/C=C/c2ccc3c(c2)OCO3)=N/Nc2ccccc2)s1` the GI50 was inactive: > 100 µM.
With `NC(=S)N/N=C(\CCC(=O)Nc1ccccc1[N+](=O)[O-])CC(=O)c1ccco1` the GI50 was inactive: > 100 µM.
`c1ccncc1` was tested, and the GI50 was inactive: > 100 µM.
In the case of `CC1(C)C=C(/C=N/Nc2ccc(Br)cc2)C(C#N)=C(O)C1(C#N)C#N`, the GI50 is reported as inactive: 58.2 µM.
`CCOC(=O)/C(O)=C(/c1n[nH]c(=O)c2ccccc12)[N+](=O)[O-]` was tested, and the GI50 was inactive: > 100 µM.
In the case of `CCN(CC)c1ccc(/N=N/c2ccc(-c3nc4ccc[n+](C)c4o3)cc2)cc1`, the GI50 is reported as inactive: 16 µM.
In the case of `O=C(O)C(Cc1ccc2c(c1)CCC2)(Cc1ccc2c(c1)CCC2)C(=O)O`, the GI50 is reported as inactive: > 100 µM.
With `COC(=O)C1=C(c2ccc(OC)c(OC)c2)OC(c2ccc(OC)c(OC)c2)C1` (stereo not given) the GI50 was inactive: 57.8 µM.
For `COc1ccc(S(=O)(=O)N/N=C\c2cc([N+](=O)[O-])cc(I)c2O)c(OC)c1OC`, the GI50 was inactive: 31.7 µM.
`Cc1cs/c(=N/c2ccccc2)n1CCC(O)(P(=O)(O)O)P(=O)(O)O` was tested, and the GI50 was inactive: > 100 µM.
For `Cc1ccc(S(=O)(=O)NC2(C=O)CCC(C(C)(C)C)CC2)cc1` (stereo not given), the GI50 was inactive: 54.3 µM.
In the case of `Nc1nc(N)c2c3c(cnc2n1)CC(c1ccccc1)CC3` (stereo not given), the GI50 is reported as inactive: 18.5 µM.
`Cc1ccc2oc(=O)c(C(=O)Nc3nc(C45CC6CC(CC(C6)C4)C5)cs3)cc2c1` was tested, and the GI50 was inactive: > 100 µM.
`COc1cc(Br)c(CC2C3=C(CCN2C(=O)C2CCC2)CC2(CC3)OCCO2)cc1O` (stereo not given) was tested, and the GI50 was inactive: 93.3 µM.
For `COc1ccc(/N=C2\C(=O)C3=C(OC(C)(C)CC3)c3ccccc32)cc1`, the GI50 was inactive: 1.88 µM.
`COc1cc2c(c(OC)c1OC)-c1ccc(SC)c(=O)cc1[C@@H](NC(=O)c1ccc(Cl)cc1)CC2` was tested, and the GI50 was active: < 0.01 µM.

— ChEMBL document CHEMBL1201862, “PubChem BioAssay data set” (2004)
